Tested on: wild type EBOV

| Substance | IC50 [µM] |
| --- | --- |
| (2R,3R,4R,5R)-2-(4-Aminopyrrolo[2,1-f][1,2,4]triazin-7-yl)-2-cyano-5-((((((R)-1-(2-ethylbutoxy)-1-oxopropan-2-yl)amino)(phenoxy)phosphoryl)oxy)methyl)tetrahydrofuran-3,4-diyl ditetradecanoate [Compound 5b] | > 5 |
| (2R,3R,4R,5R)-2-(4-Aminopyrrolo[2,1-f][1,2,4]triazin-7-yl)-2-cyano-5-((((((R)-1-(2-ethylbutoxy)-1-oxopropan-2-yl)amino)(phenoxy)phosphoryl)oxy)methyl)-4-hydroxytetra hydrofuran-3-yl palmitate [Compound 3c] | 0.19 |

Reference: article PMC8454092 (European Journal of Medicinal Chemistry, 2021)
